Two compounds from patent publication US5166348A, “Bornyl and isobornyl esters of carboxylic acids of condensed tetrahydroquinoxalines” (Uralsky politekhnichesky institut, priority 1989, dated 1992) can be followed below.

Assay type in all cases: in vivo
Common to all, as to settings: for Virus titres (lg EID50): 1 mg/embryo; for log reduction at 1 mg/embryo: 48 h, read-out: Titre difference in control and experiment (lg EID50)

Assay [1] concerns influenza virus A, A(Riga)9951/86/H3N2/. The experiment in a line: sensitivity of influenza virus A strain A(Riga)9951/86/H3N2/ in chick embryos.
For assay [2], the system named is influenza virus A, A(Moscow)2813/86/H3N2/. The experiment in a line: sensitivity of influenza virus A strain A(Moscow)2813/86/H3N2/ in chick embryos.
The test system of assay [3] is influenza virus A, A(Moscow)2878/86/H3N2/. Put plainly: sensitivity of influenza virus A strain A(Moscow)2878/86/H3N2/ in chick embryos.
Assay [4] concerns influenza virus A, A(Moscow)2848/86/H3N2/. The experiment in a line: sensitivity of influenza virus A strain A(Moscow)2848/86/H3N2/ in chick embryos.
The test system of assay [5] is influenza virus A, A(Victoria)35/72/H3N2/. The experiment in a line: sensitivity of influenza virus A strain A(Victoria)35/72/H3N2/ in chick embryos.

Consider `CC1=C(C(=O)OC2CC3CCC2(C)C3(C)C)C2Nc3ccccc3N(C)C2O1` (centres unmarked) [compound 1a, isobornyl ester of 2,9-dimethyl-3a,4,9,9a-tetrahydrofuro [2,3-b] quinoxaline-3-carboxylic acid], for which the “Virus titres (lg EID50)” value amounted to 4.5 lg EID50 in assay [1]; 4.75 lg EID50 in assay [2]; 4.0 lg EID50 in assay [3]; 4.5 lg EID50 in assay [4]; 4.0 lg EID50 in assay [5]. The log reduction at 1 mg/embryo stood at 1.5 in assay [1]; 2.5 in assay [2]; 4.2 in assay [3]; 3.5 in assay [4]; 2.25 in assay [5].
As for `CC(N)C12CC3CC(CC(C3)C1)C2` (centres unmarked) [remantadine, reference compound], the “Virus titres (lg EID50)” value stood at 4.75 lg EID50 in assay [1]; 5.5 lg EID50 in assay [2]; 7.5 lg EID50 in assay [3]; 6.75 lg EID50 in assay [4]; 6.0 lg EID50 in assay [5]. Moreover, the log reduction at 1 mg/embryo worked out at 1.25 in assay [1]; 1.75 in assay [2]; 0.7 in assay [3]; 1.25 in assay [4]; 0.25 in assay [5].
